# Laboratory results published in PubChem BioAssay AID504706 (National Center for Advancing Translational Sciences (NCATS), 2011).
# Screen size: about 320,000 compounds; about 200 (0.062%) were called active. The shares of active, inactive and inconclusive entries below differ from those in the screen. The call rests on the fitted dose curve; in most records, active means well fitted activation curve with a large enough effect; inconclusive means small, poorly fitted or top-dose-only effect; inactive means no such curve, though single readings can be large or run the other way. No potency is given beside an inconclusive call; the fits are too rough.
# Experiment: qHTS assay for re-activators of p53 using a Luc reporter; further: nearly all actives have a fitted effect of over 45% in size
# Conditions: H1299 p53-A138V BP100-luciferase reporter, luminescence, 24 h; series mostly up to 92.2 µM
# Summary of the method: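 p53-null H1299 cells stably carrying temperature-sensitive p53-A138V and a BP100-luciferase reporter were pinned with compounds (4-point, 1:5 series) and held 24 hrs at 37 deg C. Luminescence was read 10 min after detection reagent.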
# Potency means the concentration at half of the fitted maximal effect; tags describe the fitted curve by direction and shape.
row,Structure (SMILES),Potency
1,CSc1ccc(CN2CCC(n3nccc3NC(=O)CCCc3ccccc3)CC2)cc1,inactive
2,O=C(Nc1cccc(Cl)c1)c1ccc2c(=O)n3c(nc2c1)CCCCC3,"inconclusive [activator, partial curve, poor fit]"
3,COC(=O)CCC(=O)c1oc2ccc(Br)cc2c1N,"inconclusive [activator, full curve, poor fit]"
4,Cc1ccc2c(Cl)c(C(=O)NCCc3ccccc3)sc2c1,"inconclusive [activator, partial curve, poor fit]"
5,CC(C)(C)c1ccc(C(=O)Nc2cccc(S(=O)(=O)NC3=NCCC3)c2)cc1,"inconclusive [activator, partial curve, poor fit]"
6,Cn1cc(C(=O)C(=O)NCCc2ccccc2)c2ccccc21,inactive
7,O=C(NC(=S)Nc1ccccc1)c1cccs1,"inconclusive [activator, full curve, poor fit]"
8,O=C(CSc1nnc(CNC(=O)c2ccccc2)o1)NCc1ccco1,"inconclusive [activator, single point]"
9,CC(C)c1ccc(/C=N/NC(=O)c2cccc(Cl)c2)cc1,"inconclusive [activator, partial curve, poor fit]"
10,CCn1c(SCc2nc3ccccc3s2)nnc1-c1ccccc1,"inconclusive [activator, partial curve, poor fit]"
11,O=C(Nc1cc(Cl)cc(Cl)c1)Nc1cnccn1,"inconclusive [activator, single point]"
12,COc1ccc(Cn2c(C3CC3)nc3ccc(NC(C)=O)cc3c2=O)cc1,"inconclusive [activator, full curve, poor fit]"
13,CCOc1nc2ccccc2nc1NS(=O)(=O)c1ccccc1,"inconclusive [activator, single point]"
14,N#Cc1c(NC(=S)NC(=O)c2ccccc2)sc2c1CCCC2,"inconclusive [activator, partial curve, poor fit]"
15,COc1cccc(C(=O)N(Cc2ccco2)c2c(N)n(Cc3ccccc3)c(=O)[nH]c2=O)c1,"inconclusive [activator, partial curve, poor fit]"
16,O=C(Nc1cccc(Cl)c1)Nc1ccccc1C(=O)O,"inconclusive [activator, full curve, poor fit]"
17,CC1CCC(NC(=O)Cn2cc3c(n2)CCCC3)CC1 (configuration not stated),"inconclusive [activator, full curve, poor fit]"
